Reference: PubChem BioAssay AID624417 (National Center for Advancing Translational Sciences (NCATS), 2012)
The whole screen tested about 410,000 compounds, of which about 6,400 (1.6%) were called active. Inconclusive means that the source gave no clear call. Such entries were picked first, then a sample of the others. The call rests on the fitted dose curve; in most records, active means well fitted inhibition curve with a large enough effect; inconclusive means small, poorly fitted or top-dose-only effect; inactive means no such curve, though single readings can be large or run the other way. Potencies of inconclusive entries are doubtful fits and often do not repeat.

The compounds below were run against Glucagon-like peptide 1 receptor (Homo sapiens) (UniProt P43220) (assay: qHTS of GLP-1 Receptor Inverse Agonists (Inhibition Mode)). Settings: HEK293 GLP-1R CRE-luciferase, luminescence, 24 h, GLP-1R form is constitutively active; series mostly up to 38.3 µM.
How it was run: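 Inverse agonism was detected as reduced cAMP-driven luciferase luminescence after 24 h compound treatment. The cells were HEK293 clones expressing constitutively active human GLP-1R with the reporter. Reporter-only and GPR119 cell lines served as counterscreen controls.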
Further: nearly all actives have a fitted effect of over 55% in size.
Potency means the concentration at half of the fitted maximal effect; tags describe the fitted curve by direction and shape.

Chain of UniProt P43220 (P43220 whole entry, looked up): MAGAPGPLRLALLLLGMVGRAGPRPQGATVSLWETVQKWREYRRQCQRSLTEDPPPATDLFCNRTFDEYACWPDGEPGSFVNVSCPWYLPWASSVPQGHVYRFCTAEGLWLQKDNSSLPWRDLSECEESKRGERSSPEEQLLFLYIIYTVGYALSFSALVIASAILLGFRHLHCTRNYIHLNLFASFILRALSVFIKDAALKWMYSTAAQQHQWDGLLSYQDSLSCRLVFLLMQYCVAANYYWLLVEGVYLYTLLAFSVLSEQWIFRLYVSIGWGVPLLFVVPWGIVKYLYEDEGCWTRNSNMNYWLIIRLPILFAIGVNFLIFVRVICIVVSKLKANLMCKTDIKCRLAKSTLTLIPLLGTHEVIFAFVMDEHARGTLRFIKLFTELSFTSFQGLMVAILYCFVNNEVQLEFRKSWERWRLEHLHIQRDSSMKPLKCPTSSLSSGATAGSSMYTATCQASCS

Potency, active:
CN(C)CCCN(C(=O)c1ccc(S(=O)(=O)N2CCCCCC2)cc1)c1nc2ccc(Br)cc2s1 3.55 µM
COc1ccc(-c2sc3ccc(OC)cc3c2-c2ccc(OCCN3CCOCC3)cc2)cc1 10 µM

Potency, inconclusive:
O=C(Nc1ccc(F)cc1)Nc1cc(OCC(F)(F)F)cc(OCC(F)(F)F)c1 2 µM [inhibitor, full curve, poor fit]
O=C(NCc1ccco1)c1ccc2c(c1)N(Cc1ccc(Cl)cc1)C(=O)c1ccccc1S2 22.4 µM [inhibitor, single point]
O=C(Nc1sc2c(c1C(=O)O)CCCC2)c1ccc(Cl)cc1 3.55 µM [inhibitor, partial curve]
COc1cccc(NC(=O)/C(C#N)=C/c2c(C)n(Cc3ccc(Cl)cc3)c3ccccc23)c1 8.91 µM [inhibitor, partial curve, poor fit]
CC(C)(C)CC(=O)NC(=S)NCCc1ccccc1 22.4 µM [inhibitor, single point]
CCCCCCCCN1C(=O)[C@H](CC(=O)N2CCN(C(=O)OCC)CC2)C[C@@]2(C(=O)OC)CCCCC=C12 11.2 µM [inhibitor, partial curve, poor fit]
CC(C)CCNC(=O)COc1ccc(N(C)S(=O)(=O)c2ccc(F)cc2)cc1 10 µM [inhibitor, partial curve]
Cc1ccc(C(C)C)c(OCCSc2nc3ccccc3n2CC(O)CO)c1 (configuration not stated) 22.4 µM [inhibitor, single point]
Cc1ccc(Nc2nc(N)[nH]c(=O)c2N=O)cc1 28.2 µM [inhibitor, single point]
CCc1ccc(C(=O)c2cn(Cc3ccc(F)cc3)c3cc(OC)c(OC)cc3c2=O)cc1 28.2 µM [inhibitor, single point]
COc1ccccc1CC(=O)Nc1ccc2c(c1)CCC2 11.2 µM [inhibitor, single point]
Cc1cccc(C(=O)N[C@H](C(=O)NCCc2ccc(Cl)cc2)C(C)C)c1 0.316 µM [inhibitor, full curve, poor fit]
CCn1c(NC(=O)c2ccccc2)nc2ccccc21 3.55 µM [inhibitor, partial curve, poor fit]
Cc1cccc(C)c1NC(=O)CN(C)CC(=O)Nc1ccc(F)c(Cl)c1 12.6 µM [inhibitor, single point]
COc1ccc(NC(=O)CNC(c2ccccc2)c2ccccc2)cc1 14.1 µM [inhibitor, single point]
CN(C)Cc1ccc(F)cc1Sc1cc(Cl)ccc1Cl 10 µM [inhibitor, partial curve, poor fit]
COc1ccc(N2CCN(C(=O)CCc3c[nH]c4ccccc34)CC2)cc1 1.78 µM [inhibitor, full curve, poor fit]
CC(C)(C)CC(=O)NC(=S)Nc1ccccc1[N+](=O)[O-] 11.2 µM [inhibitor, single point]
CN(C)CCNc1oc(-c2ccc(COc3ccc(Cl)cc3)o2)nc1C#N 28.2 µM [inhibitor, single point]
CNCc1c(OCc2ccc(F)cc2)ccc2ccccc12 12.6 µM [inhibitor, partial curve, poor fit]
CCOC(=O)Cc1csc(NC(=O)CSc2ncnc3c2cnn3-c2ccccc2Cl)n1 28.2 µM [inhibitor, single point]
CCN(CC)Cc1ccccc1Sc1ccccc1 31.6 µM [inhibitor, single point]
COc1cc(NCCCCC(C)N)c2nccc(C)c2c1 (configuration not stated) 17.8 µM [inhibitor, partial curve, poor fit]
Cc1ccc(N2C(=O)C(NC(=O)c3c(F)cccc3F)(C(F)(F)F)C3=C2CC(C)(C)CC3=O)cc1 (configuration not stated) 10 µM [inhibitor, single point]
CCOC(=O)c1c(N2C(=O)C3C4C=CC(O4)C3C2=O)sc2c1CCCC2 (configuration not stated) 31.6 µM [inhibitor, single point]
C=CC[C@@H](CC(=O)N[C@@H](CO)Cc1ccccc1)C(=O)N[C@H](COC(=O)[C@H](CC=C)CC(=O)OC(C)(C)C)Cc1c[nH]c2ccccc12 17.8 µM [inhibitor, partial curve, poor fit]
O=C1c2ccccc2C(=O)N1CCCCSc1nc2ccccc2o1 12.6 µM [inhibitor, single point]
COc1ccc(CNC(=O)c2oc3c(c2C)-c2nn(Cc4ccc(Cl)cc4)cc2CC3)cc1 8.91 µM [inhibitor, partial curve, poor fit]
O=C(Nc1ccc(Br)cc1)C1CCCN1S(=O)(=O)c1ccc(F)cc1 (configuration not stated) 25.1 µM [inhibitor, single point]
O=C(NC1CCN(C(=O)N2c3ccccc3Sc3ccccc32)CC1)c1ccco1 12.6 µM [inhibitor, partial curve, poor fit]
Cc1cc(C)nc(NC(=NCCc2c[nH]c3ccccc23)NC(=O)Nc2ccc(Cl)cc2)n1 7.94 µM [inhibitor, partial curve, poor fit]
Cc1cccc(NS(=O)(=O)c2ccc(C)c(C(=O)NCc3ccncc3)c2)c1 11.2 µM [inhibitor, single point]
O=C(COC(=O)c1cc(S(=O)(=O)N2CCCCC2)ccc1N1CCOCC1)c1ccc(F)cc1 28.2 µM [inhibitor, single point]
O=C1Nc2ccccc2SC1c1ccccc1Cl (configuration not stated) 6.31 µM [inhibitor, partial curve, poor fit]
Cc1ccc(CSc2nc3ccccc3c(=O)n2Cc2ccco2)cc1 8.91 µM [inhibitor, partial curve, poor fit]
Cc1cc(C)cc(N2C(=O)N(Cc3cccc(F)c3)c3ccccc3S2(=O)=O)c1 2.51 µM [inhibitor, full curve, poor fit]
CSc1ccc(S(=O)(=O)NC2CC3CCC2C3)cc1 (configuration not stated) 10 µM [inhibitor, partial curve, poor fit]
CCOc1ccc(/C=C/[N+](=O)[O-])c2ccccc12 3.98 µM [inhibitor, full curve, poor fit]
CCCCCc1cc(=O)oc2c(C(CCN3CCN(c4ccccc4)CC3)c3ccc4c(c3)OCO4)c(OC)cc(OC)c12 (configuration not stated) 10 µM [inhibitor, single point]
CC1CN(CCCCOc2ccc(Cl)c3ccccc23)CC(C)O1 (configuration not stated) 7.94 µM [inhibitor, partial curve]
COc1ccc(CCNC(=S)NC(=O)c2cccc(Cl)c2)cc1OC 28.2 µM [inhibitor, single point]
COc1ccc(C2=CC(=O)C[C@H](c3ccc(Cl)cc3)C2)cc1 12.6 µM [inhibitor, single point]
Cc1nc2scc(C)n2c(=O)c1S(=O)(=O)NCCc1ccccc1 7.94 µM [inhibitor, partial curve, poor fit]
Cc1cc(C(=O)CCC(=O)N2CCN(c3ccccc3O)CC2)c(C)s1 11.2 µM [inhibitor, partial curve]

Potency, inactive:
O=c1[nH]c(=O)c2cc3ccccc3nc2[nH]1
COc1ccccc1Cc1nc2ccccc2nc1SCC(=O)N1CCN(c2ccccc2)CC1
Cc1nnc(NC(=O)CSc2nnc(-c3ccc(S(=O)(=O)N4CCCC4)cc3)n2C)s1
COc1ccccc1CNc1nc(Nc2ccccc2OC)c2sccc2n1
CCOC(=O)c1sc2nc(CC(=O)OC)nc(NCCN3CCOCC3)c2c1C
Cc1nnc(SCC(=O)NCC2CCCO2)n1Cc1ccccc1 (configuration not stated)
CC(C)c1nn2c(=O)cc(COC(=O)c3ccccc3NC(=O)c3cccc(Cl)c3)nc2s1
CC(C)=CC(=O)Nc1ccc(S(=O)(=O)Nc2ccccn2)cc1
FC(F)(F)c1ccccc1NC(=S)N1CCCC1
COc1ccc(CCNC(=O)CCn2c(=O)c3ccccc3n(Cc3ccccc3)c2=O)cc1OC
COc1cc(OC)c(NS(=O)(=O)c2c(C(=O)N3CCC(C)CC3)c(C)n(C)c2C)cc1Cl
CN(C)c1ccc(/C=C/c2c([N+](=O)[O-])c(=O)n(C)c(=O)n2C)cc1
CCN(c1ccccc1)S(=O)(=O)c1nnc(NC(=O)COc2cccc(C)c2)s1
COc1ccc(NC(=O)COC(=O)C23CC4CC(CC(O)(C4)C2)C3)cc1Cl
Cc1ccc2oc(=O)c(S(=O)(=O)c3ccc(C(C)(C)C)cc3)cc2c1
COc1cccc(NC(=S)NCc2ccc(F)cc2)c1
CCc1ccccc1NC(=O)Nc1nnc(N(CC)c2ccccc2)s1
COc1cc(OC)c(C(=O)/C=C/c2ccccc2)c(O)c1O
C=CCNC(=O)c1cc(-c2ccccc2)sc1N
Cc1cc(C)c(NC(=O)C(C)n2nnc3sc4c(c3c2=O)CCCC4)c(C)c1 (configuration not stated)
C=CCOc1ccc(/C=N/n2nnnc2N)cc1OC
